Source: ChEMBL document CHEMBL4888484, “Replenishing the malaria drug discovery pipeline: Screening and hit evaluation of the MMV Hit Generation Library 1 (HGL1) against asexual blood stage Plasmodium falciparum ,using a nano luciferase reporter read-out” (2022)
About 540 (0.36%) of roughly 150,000 compounds showed an effect of 50% or more. The list shows a part of the results.

What follows are compounds tested on Plasmodium falciparum (assay: Primary screen in NF54 nanoGlo assay, in single point, at 2uM, 72h; a lower Z score goes with more inhibition). Conditions: timepoint 72 hour.
Assay type: functional, Erythrocyte
With `COCCNC(=O)c1ccc(NC(=O)c2nnc(CC(C)C)s2)cc1` the “% Inhibition” value was -14% and the Z score was 1.64. `CCCCNc1ccc(C(N)=O)c(Cl)c1` was tested, and the “% Inhibition” value was 3% and the Z score was -0.53. `CCOc1ccc(NC(=O)C[C@@H]2Nc3cccc4cccc(c34)NC2=O)cc1` was tested, and the “% Inhibition” value was 7% and the Z score was -0.74. `CCOC[C@@]12CCN(C(C)=O)C[C@@H]1CN(S(=O)(=O)c1ccccc1Cl)C2` was tested, and the “% Inhibition” value was -15% and the Z score was 2.2. `CN(CCc1ccc2c(c1)CCO2)CCS(C)(=O)=O` was tested, and the “% Inhibition” value was -6% and the Z score was 0.86. With `O=C(COC[C@H]1CCCCO1)N1CCN(c2ccc3[nH]ncc3c2)C(=O)C1` the “% Inhibition” value was -6% and the Z score was 1.26. For `Cc1ccc(C)c(NC(=O)Cn2nc(N3CCCCCC3)c3ccccc3c2=O)c1`, the “% Inhibition” value was -10% and the Z score was 1.51. In the case of `CN(C)C[C@H]1CN(CCC(=O)NCc2ccccc2Cl)CCO1`, the “% Inhibition” value is reported as -8% and the Z score is reported as 1.03. With `CN1c2ccccc2N(C2CCN(C(=O)c3ccc(C(F)(F)F)nc3)CC2)S1(=O)=O` the “% Inhibition” value was 5% and the Z score was -0.53. In the case of `Nc1c(Cl)cc(C(=O)N2CCC3OCC(=O)NC3C2)cc1Cl` (centres undefined), the “% Inhibition” value is reported as 0% and the Z score is reported as 0.06. `CCCN1C[C@]23C=C[C@H](O2)[C@H](C(=O)NCCc2scnc2C)[C@@H]3C1=O` was tested, and the “% Inhibition” value was -16% and the Z score was 1.49. With `Cc1ccccc1S(=O)(=O)N[C@H]1CCN(c2ccc(=O)n(C)n2)C1` the “% Inhibition” value was -3% and the Z score was 0.45. For `CCNC(=O)c1ccccc1NC(=O)CC`, the “% Inhibition” value was -23% and the Z score was 1.98. With `CC(C)NC(=O)NC[C@H]1CCCN(Cc2ccnc(C(C)C)n2)C1` the “% Inhibition” value was -13% and the Z score was 1.31. For `CN(C(=O)c1cccc(Nc2cnccn2)c1)c1ccc(F)cc1`, the “% Inhibition” value was 16% and the Z score was -2.09. In the case of `COC[C@@H]1CN(c2cnccn2)C[C@H]1C(=O)NCc1c(C)nn(C)c1C`, the “% Inhibition” value is reported as -8% and the Z score is reported as 1.15. In the case of `CCOC1CC(CC(=O)N[C@H]2CC(=O)N(c3cnn(C)c3)C2)C1` (some centres undefined), the “% Inhibition” value is reported as -20% and the Z score is reported as 2.01. For `c1coc(CN2CCC(N3CCOc4ccccc4C3)CC2)c1`, the “% Inhibition” value was 0% and the Z score was 0.06. With `Cn1nccc1[C@@H]1CCCN1CC(=O)Nc1cc(F)ccc1F` the “% Inhibition” value was -21% and the Z score was 2.29. With `CCOc1ccc2nc(CN(Cc3cnn(C)c3)C3CC3)ccc2c1` the “% Inhibition” value was -7% and the Z score was 1.15. For `Cc1ccnc(NCCc2csc(C(C)C)n2)n1`, the “% Inhibition” value was -18% and the Z score was 1.77. For `CCc1ccc(C(=O)N2CCC3(CC2)OC[C@@H](C(=O)NCc2cccnc2)N3C(=O)c2ccc(F)cc2)cc1`, the “% Inhibition” value was -14% and the Z score was 1.41. With `CC(C)N1C2CCC1CN(C(=O)c1ccc(N3CCCC3)nc1)CC2` (centres undefined) the “% Inhibition” value was 35% and the Z score was -3.94. `COCCCn1c(C)cc(C(=O)N2CCC3(CC2)CC[C@]3(C)O)c1C` was tested, and the “% Inhibition” value was -7% and the Z score was 0.82. `Cc1nc2ccnn2c(C)c1C(=O)Nc1cnn(C2CCC2)c1` was tested, and the “% Inhibition” value was -13% and the Z score was 1.35. For `COc1cc(C)nc(CON=C(N)c2ccc(N(C)C)cc2)c1`, the “% Inhibition” value was 3% and the Z score was -0.5. In the case of `O=C1CC2(CCN(C(=O)c3cccnc3O)CC2)CN1Cc1ccccc1`, the “% Inhibition” value is reported as -4% and the Z score is reported as 0.56. With `COCCn1cc2c(n1)[C@@H](NCc1ccc(F)cc1)CCC2` the “% Inhibition” value was -3% and the Z score was 0.29. For `O=C(CCc1nc([C@H]2CCOC2)no1)c1ccccc1`, the “% Inhibition” value was -1% and the Z score was 0.17. With `O=C(NCc1ccco1)C1CCCC(F)C1` (centres undefined) the “% Inhibition” value was 1% and the Z score was -0.14. In the case of `CCc1noc(C)c1NC(=O)C(=O)N1CCC[C@H]1c1ccncc1`, the “% Inhibition” value is reported as -10% and the Z score is reported as 1.9. In the case of `Cc1ccc(C(=O)N(CC(=O)N2CCc3sccc3C2COc2ccc(C(C)C)cc2)CC2CCCO2)cc1` (centres undefined), the “% Inhibition” value is reported as -6% and the Z score is reported as 0.93. With `O=C(Cc1ccccc1CO)NC[C@H]1CCCC[C@@H]1O` the “% Inhibition” value was 3% and the Z score was -0.55. In the case of `CC(C)NC(=O)[C@@H]1C[C@@H](NCc2cccc(C(F)(F)F)c2)CN1C(C)C`, the “% Inhibition” value is reported as 17% and the Z score is reported as -2.3. In the case of `COc1cccc(CC(=O)NC2CC2)c1`, the “% Inhibition” value is reported as -11% and the Z score is reported as 1.52. In the case of `Cc1c(CC(=O)N[C@@H](C)C2CC2)c2c(n1Cc1ccc(F)cc1)CCCC2=O`, the “% Inhibition” value is reported as -12% and the Z score is reported as 1.39. With `NCCOc1ccc(CC(=O)N2C[C@@H]3CCC[C@@H](C3)C2)cc1` the “% Inhibition” value was -16% and the Z score was 2.96. For `COCC1(C(=O)N2CC[C@@]3(CCCN(C4CCCC4)C3=O)C2)CCC1`, the “% Inhibition” value was -5% and the Z score was 0.88. In the case of `Cc1ccoc1C(=O)N1CCN(C[C@H](O)COc2ccccc2)CC1`, the “% Inhibition” value is reported as -8% and the Z score is reported as 1.46. For `COc1cccc(CNC(=O)Cn2c(=O)n(Cc3ccc(F)cc3)c(=O)c3nn(C)cc32)c1`, the “% Inhibition” value was -2% and the Z score was 0.3. `Cc1cc(C(F)(F)F)nn1C[C@@H](C)CNC(=O)c1nc2ncccn2n1` was tested, and the “% Inhibition” value was -44% and the Z score was 5.17. For `CS(=O)(=O)N1CCN(CCC(=O)Nc2ccc3c(c2)CCC3)CC1`, the “% Inhibition” value was 9% and the Z score was -1.35.
